Reference: article PMC6021437
These are yes or no findings as the source states them, for the method shown. Binding seen in cells or lysates may run through a third protein. Some entries that bind do so weakly or less than the wild type.

The chains behind the UniProt entries cited, without tags or fusion partners. Where a name states a change or a piece, a line headed by the entry shows the natural chain unless it says otherwise. A line that says so, or that is headed by a name, gives the form on record, which may keep a tag or linker.
UniProt Q3KNJ2: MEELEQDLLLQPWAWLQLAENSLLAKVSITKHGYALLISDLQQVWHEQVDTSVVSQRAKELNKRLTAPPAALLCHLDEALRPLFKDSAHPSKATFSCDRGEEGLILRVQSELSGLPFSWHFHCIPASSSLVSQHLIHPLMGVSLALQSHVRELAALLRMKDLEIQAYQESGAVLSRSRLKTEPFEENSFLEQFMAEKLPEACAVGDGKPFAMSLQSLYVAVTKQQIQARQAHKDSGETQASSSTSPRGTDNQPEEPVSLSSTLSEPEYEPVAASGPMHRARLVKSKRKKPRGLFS
3xFlag-XLF (mouse) K160D/4KA (Q3KNJ2, form named): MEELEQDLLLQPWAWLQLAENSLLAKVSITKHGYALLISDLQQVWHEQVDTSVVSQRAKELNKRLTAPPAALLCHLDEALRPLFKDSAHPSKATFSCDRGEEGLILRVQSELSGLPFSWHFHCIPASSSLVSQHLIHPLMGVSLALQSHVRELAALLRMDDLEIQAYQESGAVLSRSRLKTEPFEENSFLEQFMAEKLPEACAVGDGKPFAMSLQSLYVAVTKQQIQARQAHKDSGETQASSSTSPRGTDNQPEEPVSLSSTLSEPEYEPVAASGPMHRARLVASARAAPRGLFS
3xFlag-XLF (mouse) L115A/4KA (Q3KNJ2, form named): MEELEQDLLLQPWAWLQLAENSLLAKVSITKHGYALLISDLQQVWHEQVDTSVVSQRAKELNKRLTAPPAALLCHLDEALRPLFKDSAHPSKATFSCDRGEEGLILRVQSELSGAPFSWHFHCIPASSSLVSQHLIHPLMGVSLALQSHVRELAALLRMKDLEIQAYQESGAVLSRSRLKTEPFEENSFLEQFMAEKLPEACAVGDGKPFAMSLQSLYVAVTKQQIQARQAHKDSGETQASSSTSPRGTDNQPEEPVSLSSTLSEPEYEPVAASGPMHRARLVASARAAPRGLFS
3xFlag-XLF (mouse) R178Q/4KA (Q3KNJ2, form named): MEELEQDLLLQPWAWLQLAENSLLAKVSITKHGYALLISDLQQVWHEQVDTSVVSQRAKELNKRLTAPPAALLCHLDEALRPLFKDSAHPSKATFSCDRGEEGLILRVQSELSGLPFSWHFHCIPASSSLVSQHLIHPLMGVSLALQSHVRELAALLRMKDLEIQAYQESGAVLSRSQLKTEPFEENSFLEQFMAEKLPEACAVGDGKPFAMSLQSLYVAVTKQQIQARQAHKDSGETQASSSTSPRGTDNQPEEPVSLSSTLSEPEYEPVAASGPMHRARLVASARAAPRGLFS
UniProt Q924T3: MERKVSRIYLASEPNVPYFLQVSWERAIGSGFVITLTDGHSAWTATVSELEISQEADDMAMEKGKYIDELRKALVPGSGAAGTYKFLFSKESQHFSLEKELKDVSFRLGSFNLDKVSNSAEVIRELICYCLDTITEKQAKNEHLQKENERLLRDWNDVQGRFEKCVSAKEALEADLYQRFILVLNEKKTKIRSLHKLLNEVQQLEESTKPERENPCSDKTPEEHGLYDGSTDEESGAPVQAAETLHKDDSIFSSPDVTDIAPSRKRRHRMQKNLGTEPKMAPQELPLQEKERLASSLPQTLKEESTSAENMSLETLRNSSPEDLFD

Key:
Experiment in all cases: co-IP; Flag-IP (anti-FLAG M2 magnetic beads, overnight at 4 °C) from lysates of Xlf-/- mESCs co-transfected with 3xFlag-XLF WT or mutant and pCAGGS-HA-XRCC4; NETN buffer (20 mM TRIS pH 8.0, 100 mM NaCl, 1 mM EDTA, 0.5% IGEPAL, 1.25 mM dithiothreitol) with phosphatase inhibitor; immunoblot for XRCC4
[1] = target: 3xFlag-XLF (mouse) 4KA (K284A; K286A; K288A; K289A) (mouse) (UniProt Q3KNJ2)
[2] = target: 3xFlag-XLF (mouse), wild type (mouse) (UniProt Q3KNJ2)
[3] = target: 3xFlag-XLF (mouse) K160D (mouse) (UniProt Q3KNJ2)
[4] = target: 3xFlag-XLF (mouse) K160D/4KA (mouse) (UniProt Q3KNJ2)
[5] = target: 3xFlag-XLF (mouse) R178Q (mouse) (UniProt Q3KNJ2)
[6] = target: 3xFlag-XLF (mouse) L115A/4KA (mouse) (UniProt Q3KNJ2)
[7] = target: 3xFlag-XLF (mouse) R178Q/4KA (mouse) (UniProt Q3KNJ2)

binding [1]: binds | binding [2]: binds | binding [3]: binds | binding [4]: binds | binding [5]: binds | binding [6]: no binding | binding [7]: binds
Substance: HA-XRCC4 (from UniProt Q924T3 1-326)
